The text below walks through data of PubChem BioAssay AID463173 (ICCB-Longwood Screening Facility, Harvard Medical School, 2010).

Out of some 52,000 compounds screened, about 1,700 (3.3%) were called active. No stated cut-off is given here; in the data, active means survival mostly below about 52% (no sharp cut-off); inactive means mostly above about 56%. This is one part of the list.

This experiment concerns Wild type. Briefly: growth inhibition of S. aureus wild type versus tarO mutant, primary screen, teichoic acid synthesis inhibitors, RN4220, OD600 (AID 463173). The following applies: S. aureus RN4220 wild type/DeltatarO growth, OD600, 18 h, active compounds read low, screened at 18.75 µg/mL (by protocol).
As for `CCC(C(=O)Nc1cc(-c2nc3cccnc3s2)ccc1C)c1ccccc1` (centres undefined), the survival is inactive: 71%. For the molecule `O=C(Cn1c(SCC(=O)Nc2nccs2)nc2ccccc21)NCc1ccccc1`, the survival was inactive: 110%. Then `S=C(Nc1ccccn1)c1ccccc1`, with inactive: 110%; and `CCOc1ccccc1C1CC(=O)Oc2c1c(=O)n(C)c1ccccc21` (centres undefined), with inactive: 68%.

On to `Cc1ccc(Cl)cc1NC(=O)Cn1c(=O)c2ccccc2n2nncc12`, for which the survival is inactive: 91%.

Regarding `CC1(C)Oc2ccc(C(=O)Nc3ccccc3)cc2N(CC(=O)N2CCCC2)C1=O`, the survival was inactive: 117%. Then `CC1=C(C(=O)Nc2ccc(C)cc2C)C(c2ccccc2)n2ncc(C(=O)Nc3ccccc3)c2N1` (centres undefined), with inactive: 75%; and `CCOC(=O)c1c(-c2ccccc2)csc1NC(=O)c1cc(-c2ccc(Cl)cc2)on1`, with inactive: 85%; and `Cc1ccccc1-c1nc2cc(NC(=O)COc3ccc(F)cc3)ccc2o1`, with inactive: 85%.

Regarding `O=C(NC1CCCC1)C(c1ccc(O)cc1)N(C(=O)Cn1nnc(-c2cccs2)n1)C1CCCC1` (centres undefined), the survival is inactive: 100%.

Turning to `CCOC(=O)CSc1nc2ccc(NC(=O)c3ccccc3F)cc2s1`, the survival was inactive: 69%. Then `CCOC(=O)c1sc(NC(=O)c2cc(-c3ccc(F)cc3)on2)c(C(=O)OCC)c1C`, with inactive: 100%. Under `COC(=O)c1ccc2c(=O)n(CCCCCC(=O)N3CCN(c4ccc(OC)cc4)CC3)c(=O)[nH]c2c1` stands inactive: 66%; under `Cc1c(CC(=O)NCCc2ccc(Cl)cc2)c(=O)oc2c(C)c3occ(C(C)(C)C)c3cc12`, inactive: 87%; under `Cc1ccc(NC(=O)C2CCCN(S(=O)(=O)c3cccc4cccnc34)C2)c(C)c1` (centres undefined), inactive: 72%. Under `CCOc1ccc(CNC(=O)c2ccc(Sc3ccc(Cl)cc3)c(NC(C)=O)c2)cc1OC` stands inactive: 89%; under `O=C(CCC1CCCC1)N1CCN(C(=O)Cc2ccccc2)CC1`, inactive: 94%.

As to `CCS(=O)(=O)c1nc(S(=O)(=O)c2ccc(Cl)cc2)c(NCc2ccccc2Cl)s1`, the survival was inactive: 83%. Under `COc1ccc2oc(=O)c(C(N)=O)cc2c1` stands inactive: 99%; under `O=C(CSc1nnc2[nH]c(=O)cc(-c3ccccc3)n12)Nc1cc(C(F)(F)F)ccc1Cl`, inactive: 64%. Under `CCOc1ccc(NC(=O)CN(C)S(=O)(=O)c2cnc[nH]2)cc1` stands inactive: 76%; under `COc1ccc(NC(=O)NC(C)c2c(-n3cccc3)sc3c2CCN(C)C3)c(OC)c1` (centres undefined), inactive: 67%; under `Nc1c(C(=O)Nc2cccc(C(F)(F)F)c2)c2ccccn2c1C(=O)c1ccccc1`, inactive: 92%. Under `Cc1ccc2oc(-c3cc(NC(=O)/C=C/c4ccco4)ccc3Cl)nc2c1` stands inactive: 25%.

Regarding `CC(=O)Nc1nonc1-c1nc2ccccc2n1Cc1ccccc1Br`, the survival is inactive: 97%. Then `COc1cc2c(cc1OC)C(COc1ccc3c(C)cc(=O)oc3c1)N(C(=O)CC(C)C)CC2` (centres undefined), with inactive: 69%; and `Cc1ccc2c(c1)N(C(=O)Nc1cccc3c1CCCC3)CC(C)O2` (centres undefined), with inactive: 98%; and `COc1c(Cl)cc(Cl)cc1/C=C(\C#N)C(N)=O`, with inactive: 100%. Then `Brc1ccc2nc(SCCOc3ccccc3)[nH]c2c1`, with active: 0%. Regarding `CCOC(=O)c1noc2nc(C)n(Cc3ccc([N+](=O)[O-])cc3)c(=O)c12`, the survival was inactive: 85%.

As for `Cc1cccc(Cn2nnc3c(=O)[nH]c(C4CCN(C(=O)c5ccc(F)cc5)CC4)nc32)c1`, the survival is inactive: 29%. As for `COc1ccc(NC(=O)CCc2c(C)nc3c(-c4ccc(F)cc4)c(C)nn3c2C)c(OC)c1`, the survival is inactive: 78%. Under `Cc1ccccc1CN1CCCN(CC(=O)Nc2ccc3c(c2)OCCO3)S1(=O)=O` stands inactive: 72%. Under `COC(=O)c1cc(NC(=O)c2ccc(-c3ccc(Cl)cc3Cl)o2)cc(C(=O)OC)c1` stands inactive: 65%; under `O=C(NCc1cccc(Cl)c1)C1CCCN(c2ncnc3onc(-c4ccc(F)cc4)c23)C1` (centres undefined), inactive: 138%; under `CCn1c(=O)cc(SCC(=O)N2CCN(c3ccccc3F)CC2)c2ccccc21`, inactive: 73%. `CCOc1ccc(NC(=O)c2c(NC(=O)c3cccs3)sc3c2CCC(C(C)(C)C)C3)cc1` (centres undefined): the survival was inactive: 76%.

As to `COc1ccccc1NC(=O)c1cc(S(=O)(=O)NCCC2=CCCCC2)ccc1F`, the survival is inactive: 47%.

As for `CN1CCN(C(CNC(=O)c2ccccc2)c2ccc3c(c2)OCO3)CC1` (centres undefined), the survival was inactive: 81%.

As to `CNC(=O)C1CCN(c2nc3ccccc3nc2C(F)(F)F)CC1`, the survival was inactive: 79%.

As for `O=C(Nc1ccc(C(F)(F)F)cc1)N1CCC(N2CCCCC2)CC1`, the survival was inactive: 109%. In the case of `CCc1ccc(NC(=O)N2CCN(C(=O)c3nsc4ccccc34)CC2)cc1`, the survival is inactive: 76%.

With `CNC(=O)c1ccc(CSc2nc3ccncc3n2Cc2ccc(C)cc2)cc1`, the survival was inactive: 76%.

`COc1cc(Cl)c(C)cc1NC(=O)c1cnc2c(-c3cccc(C)c3)c(C)nn2c1C`: the survival was active: 14%.

For the molecule `Cc1ccsc1CN1CCc2nc(N3CCN(c4ccccc4F)CC3)ncc2C1`, the survival is inactive: 67%. Regarding `COCC(O)CNc1ccccc1` (centres undefined), the survival was inactive: 109%. On to `CCOc1ccc(OCC)c(Nc2nc3ccc(Cl)cc3n3cnnc23)c1`, for which the survival is inactive: 69%. Take `COc1cccc(CNC(=O)Cn2c(C)c3cnn(-c4ccccc4)c(=O)c3c2C)c1`: the survival is inactive: 86%. Then `CCC(Oc1ccccc1)C(=O)N1CCOCC1` (centres undefined), with inactive: 113%.

On to `CCCN(C(=O)Cn1cc(S(=O)(=O)N2CCN(c3ccccc3F)CC2)c2ccccc2c1=O)c1cccc(C)c1`, for which the survival is inactive: 92%. In the case of `CC(C)CN(CCNC(=O)c1cc(-c2ccc(Cl)s2)nc2ccccc12)CC(C)C`, the survival is inactive: 80%. Under `CC(C)(C)C(=O)Cn1c(=O)n(-c2ccc(Cl)c(Cl)c2)c(=O)c2c3c(sc21)CCCC3` stands inactive: 96%; under `COc1ccc(C(=O)NCCNc2nc3c(C)cccc3cc2C#N)cc1OC`, inactive: 102%. As to `Cc1cc(C)cc(N2CCn3c2nc2c3c(=O)n(CCCc3ccccc3)c(=O)n2C)c1`, the survival was inactive: 78%.

As to `COCc1cc(C)nc2sc(C(=O)Nc3cc(C)ccc3F)c(N)c12`, the survival is inactive: 68%. Then `COc1ccc(CCNC(=O)Cn2cc(C(=O)c3ccc(F)cc3)c(=O)c3ccc(C)nc32)cc1OC`, with inactive: 152%; and `Cc1ccc(CNC(=O)CCC(=O)N2CCSc3ccccc32)cc1`, with inactive: 109%; and `Cc1ccc(CNC(=O)CCCn2c(=O)c3ccccc3n(Cc3ccc(Cl)cc3)c2=O)cc1`, with inactive: 73%. Under `CN(C(=O)CSc1nnc(-c2ccc([N+](=O)[O-])cc2)o1)c1ccccc1` stands inactive: 75%. Then `COCCCNC(=O)C1CCCN(c2nn3cc(-c4ccc(C)cc4)nc3s2)C1` (centres undefined), with inactive: 146%; and `CCOc1ccc(-c2noc(CSc3nnc(Cc4ccccc4)n3-c3cccc(C)c3)n2)cc1`, with inactive: 65%; and `Cc1ccc(-c2nc3cc(C(C)C)ccc3o2)cc1NC(=O)c1cc([N+](=O)[O-])ccc1N1CCOCC1`, with inactive: 103%. Consider `COC(=O)C1C(=O)C2=C(CC1C)Nc1ccccc1NC2c1ccc(O)c(OC)c1` (centres undefined), for which the survival was inactive: 114%. Then `Cc1cccc(-c2nc3ccccc3n3c(-c4ccccc4)c4c(=O)n(C)c(=O)n(C)c4c23)c1`, with inactive: 121%; and `O=C(Nc1ccc(F)c(Cl)c1)N1CCC(CN2CCc3ccccc3C2)CC1`, with inactive: 57%; and `Nc1ncc2c(n1)CC(c1ccco1)CC2=O` (centres undefined), with inactive: 92%. Then `NCCNC(=O)CCc1n[nH]c(=O)c2ccccc12`, with inactive: 113%.

Regarding `NC1CCN(C(=O)NC2CCCCC2)CC1`, the survival is inactive: 114%. Under `CCC(C)NC(=O)CCc1c(C)nc2cc(-c3ccc(OC)cc3OC)nn2c1C` (centres undefined) stands inactive: 71%. Then `Cc1cccc(CCNC(=O)C2CCN(c3nc4ccccc4nc3C(F)(F)F)CC2)c1`, with inactive: 75%; and `CCc1ccc(NC(=O)Cn2cnc3sc(C)c(S(=O)(=O)N4CCN(c5ccccc5OC)CC4)c3c2=O)cc1`, with inactive: 138%.

Turning to `O=C(Oc1ccnc2cc(Cl)ccc12)N1CCCCC1`, the survival is inactive: 105%.

In the case of `Cc1ccc(-n2ncc3c(NCC(C)C)ncnc32)c(C)c1`, the survival is active: 10%. Consider `CCc1cccc(NC(=O)c2ccc(CNS(=O)(=O)c3ccc4c(c3)C(C)(C)C(=O)N4C)cc2)c1`, for which the survival was inactive: 77%.

With `COc1ccccc1-c1cc2nc(C)c(CCC(=O)Nc3cc(C)ccc3C)c(C)n2n1`, the survival was inactive: 82%. Consider `CN1C(=O)C2C3c4ccccc4C(c4ccccc43)C2C1=O` (centres undefined), for which the survival is inactive: 106%.

Take `COC(=O)c1ccccc1-n1cc2c(c1-c1cccc(C)c1)c(=O)n(C)c(=O)n2C`: the survival is inactive: 93%.

As for `Cc1ccc(C)c(NC(=O)Nc2cccc(-c3cn4cccnc4n3)c2)c1`, the survival is inactive: 71%. With `COc1ccc(-n2nnc(-c3nc(-c4cccs4)no3)c2N)cc1`, the survival is inactive: 96%. Under `CCN(C(=O)c1ccco1)c1nnc(Cn2nnc3ccccc32)s1` stands inactive: 108%; under `Cc1oc(-c2ccccc2F)nc1CSc1nnc(C)n2c1cc1occc12`, inactive: 99%. Under `CC(C)(C)OC(=O)N1CCC(c2c(C(=O)N3CCOCC3)cnn2-c2cccc(F)c2)CC1` stands inactive: 136%; under `O=C(CSc1nc2c(c(=O)[nH]1)CN(Cc1ccc3c(c1)OCO3)CC2)Nc1ccc(F)c(F)c1`, inactive: 105%; under `CCCN(CCC)CCNC(=O)C1CCN(c2nc3ccc(CC)cc3s2)CC1`, inactive: 67%. For the molecule `CCOC(=O)c1cnc2ccc(Cl)cc2c1Nc1ccc(N2CCOCC2)cc1`, the survival was active: 0%. Then `O=C(Nc1ccc(C(=O)N2CCN(c3ccccc3)CC2)cc1)c1nsc2ccccc12`, with active: -3%; and `Cc1ccc(S(=O)(=O)c2cn(Cc3ccc(F)cc3)c3cc(N4CCCC4)c(F)cc3c2=O)cc1`, with inactive: 67%; and `CCOc1ccc(CCNC(=O)c2cc3sc(CC)cc3n2C)cc1OCC`, with inactive: 72%. Under `Cc1ccc(S(=O)(=O)N2CCC(n3c(C)nc4cccnc43)CC2)c(C)c1` stands inactive: 71%.
